In article PMC5892938:
The other results are listed elsewhere or left out. The source does not settle which construct or isoform was used.

biological target: GST-SBP-ILF3 (Homo sapiens) (UniProt Q12906); assay: targeted RNA Bind-n-Seq; conditions: RBNS binding buffer: 25 mM Tris pH 7.5, 150 mM KCl, 3 mM MgCl2, 0.1% Tween, 0.5 mg/mL BSA, 1 mM DTT; 27 nM protein, 750 pM RNA pool; temperature not stated; high values mean tight binding; sequences stand for … in GGGUAAAAGCGAGGUGAA…CGGGACAAGUAUUAUGGG

| Sequence | binding signal (log2 fold change) |
| --- | --- |
| UUUUUUUUUUGAGAUGGUGACCAUCUCCUG [tttttgagapaired] | 0.429 |
| UUUUUUUUUUGAGACGGGAGCCGUCUCCUG [tttttgagapaired] | 0.524 |
| UUUUUUUUUUGAGACGGGAUCCGUCUUCUA [tttttgagapaired] | 0.0738 |
| GUUGGUGGUGUUGGAACCUAACACCGCCGA [gtspaired] | -0.494 |
| UUUUUUUUUUGAGAGCGUCACGCUCUCCGG [tttttgagapaired] | 0.607 |
| GUGUUGUGUGUUGGCAUCUAACACACAGCG [gtspaired] | -0.749 |
| UUUUUUUUUUGAGACUGCAGCAGUCUCCAG [tttttgagapaired] | 0.612 |
| UUUUUUUUUUGAGAGGGGUCCCCUCUCCUG [tttttgagapaired] | 1.03 |
| UUUUUUUUUUGAGAUGGGAGCCAUCUCCGG [tttttgagapaired] | 0.209 |
| UUUUUUUUUUGAGACGGGCGCCGUCUCCUG [tttttgagapaired] | 0.876 |
| UUUUUUUUUUGAGAUCGUGUCGAUCUCCAG [tttttgagapaired] | 0.378 |
| GUGGUGUGUGUUGGCUCCUAACACACAUCG [gtspaired] | -0.591 |
| GUGUGUUGUGUUGGAGUCUAACACAGCGCG [gtspaired] | -0.804 |
| GGUGGUUGUGUUGGAGUCUAACACAAUCGC [gtspaired] | -0.0498 |
| UUUUUUUUUUGAGACCGUGUCGGUCUCCGG [tttttgagapaired] | 0.651 |
| UUUUUUUUUUGAGAGGGGCGCCCUCUCCGG [tttttgagapaired] | 0.707 |
| UUUUUUUUUUGAGACGGACUCCGUCUUCUA [tttttgagapaired] | 0.408 |
| UUUUUUUUUUGAGAGCGGCACGUUCUCCGG [tttttgagapaired] | 0.452 |
| GGUGGUGGUGUUGGUAUCUAACACCAUCGC [gtspaired] | -0.488 |
| UUUUUUUUUUGAGAGCGAGCCGUUCUCCAG [tttttgagapaired] | 0.322 |
| UUUUUUUUUUGAGAGGGCUUCCCUCUCCGG [tttttgagapaired] | 0.414 |
| GUGGUGUGUGUUGGUGCCUAACACAUACCA [gtspaired] | -0.503 |
| GUGGUGUGUGUUGGAUCCUAACACAUACCA [gtspaired] | -0.543 |
| GUGGUUGGUGUUGGUGCCUAACACCGACCG [gtspaired] | -0.532 |
| GUUGUGUGUGUUGGAACCUAACACACACGA [gtspaired] | -0.506 |
| UUUUUUUUUUGAGACGGACACCGUCUCCAG [tttttgagapaired] | 0.401 |

| Sequence | binding signal (log2 fold change) |
| --- | --- |
| GGUGUUGGUGUUGGAACCUAACACCAGCGC [gtspaired] | -0.562 |
| UUUUUUUUUUGAGACUGCAGCAGUUUCCGG [tttttgagapaired] | 0.837 |
| UUUUUUUUUUGAGACCGGAGCGGUCUUCUG [tttttgagapaired] | 0.784 |
| UUUUUUUUUUGAGACGGAUUCCGUUUCCGG [tttttgagapaired] | 0.416 |
| UUUUUUUUUUGAGACUGCUGCAGUCUCCGG [tttttgagapaired] | 0.629 |
| UUUUUUUUUUGAGAGCGUAACGCUCUCCUA [tttttgagapaired] | 0.212 |
| GUGGUUGGUGUUGGUGUCUAACACCGACUA [gtspaired] | -0.593 |
| GUGGUUGGUGUUGGUCCCUAACACCGACCA [gtspaired] | -0.265 |
| UUUUUUUUUUGAGAUCGGUCCGAUCUCCUA [tttttgagapaired] | 0.401 |
| UUUUUUUUUUGAGAGUGAAACACUCUCCAG [tttttgagapaired] | -0.151 |
| GGUGGUUGUGUUGGACUCUAACACAGCUAC [gtspaired] | -0.707 |
| UUUUUUUUUUGAGACUGAAUCAGUUUCCAG [tttttgagapaired] | 0.27 |
| UUCUCUCUUCCUCCAAUGGAGGAGGGGAGA [ctspaired] | -0.674 |
| UUUUUUUUUUGAGAGGGGACCCCUCUCCGG [tttttgagapaired] | 0.782 |
| UUUUUUUUUUGAGACCGAAACGGUCUUCUG [tttttgagapaired] | 0.4 |
| UUCUCCUCUCCUCCGCCGGAGGGGAGGGGA [ctspaired] | -0.643 |
| UUUUUUUUUUGAGAGGGUGUCCCUCUCCAG [tttttgagapaired] | 0.678 |
| GGUGUGUGUGUUGGAUUCUAACACAUACGC [gtspaired] | -0.994 |
| GUGUGGUGUGUUGGUAUCUAACACAUCACG [gtspaired] | -0.668 |
| UUUUUUUUUUGAGAGGGCUUCCCUCUUCUA [tttttgagapaired] | 0.381 |
| GUGUGUGGUGUUGGUGCCUAACACCAUACA [gtspaired] | -0.327 |
| UUUUUUUUUUGAGAGGGAACCCUUCUCCAG [tttttgagapaired] | 0.0431 |
| UUUUUUUUUUGAGAUGGGAUCCAUUUCCUA [tttttgagapaired] | 0.0625 |
| GUGUGUUGUGUUGGUAUCUAACACAACGCA [gtspaired] | -0.328 |
| GUUGUGUGUGUUGGAGUCUAACACACGCAG [gtspaired] | -0.593 |
| UUCUCUCUUCCUCCAUUGGAGGAGGAGGGA [ctspaired] | 0.14 |

| Sequence | binding signal (log2 fold change) |
| --- | --- |
| GGUUGUGGUGUUGGCUUCUAACACCGCAGC [gtspaired] | -0.573 |
| UUUUUUUUUUGAGAUGGUAACUAUCUCCGG [tttttgagapaired] | 0.253 |
| UUUUUUUUUUGAGAUGGAAACCAUCUCCUA [tttttgagapaired] | -0.22 |
| UUUUUUUUUUGAGAGGGGGCCCCUUUCCAG [tttttgagapaired] | 0.547 |
| UUUUUUUUUUGAGAUCGGUGCGAUCUCCAG [tttttgagapaired] | 0.354 |
| GUGUGUGGUGUUGGAUUCUAACACCGCGCG [gtspaired] | -0.697 |
| UUUUUUUUUUGAGAUGGGCCCCAUCUCCUA [tttttgagapaired] | 0.751 |
| GGUGGUGGUGUUGGAUCCUAACACCAUCGC [gtspaired] | -0.422 |
| UUUUUUUUUUGAGACUGAAGCAGUCUCCGG [tttttgagapaired] | 0.445 |
| UUUUUUUUUUGAGAGGGCGCCCCUCUCCGG [tttttgagapaired] | 0.687 |
| UUUUUUUUUUGAGAGGGACUCCUUCUCCGG [tttttgagapaired] | 0.101 |
| GUGUGUGGUGUUGGAAUCUAACACCGCGCG [gtspaired] | -0.795 |
| UUUUUUUUUUGAGAUCGACGCGAUCUUCUA [tttttgagapaired] | 0.357 |
| GUGUGGUGUGUUGGCUUCUAACACAUCACA [gtspaired] | -0.595 |
| GUGUGGUGUGUUGGUAUCUAACACACCGCG [gtspaired] | -0.0391 |
| UUUUUUUUUUGAGAGCGAUCCGCUCUCCAG [tttttgagapaired] | 0.227 |
| UUUUUUUUUUGAGAUGGACGCCAUCUCCAG [tttttgagapaired] | 0.533 |
| UUUUUUUUUUGAGACUGUGUCAGUCUCCAG [tttttgagapaired] | 0.557 |
| UUUUUUUUUUGAGACCGGAUCGGUCUCCUG [tttttgagapaired] | 0.417 |
| UUUUUUUUUUGAGACGGCGGCCGUUUCCUG [tttttgagapaired] | 0.911 |
| GGUGGUGGUGUUGGUGCCUAACACCGCUAC [gtspaired] | -0.436 |
| GUGGUGUGUGUUGGACCCUAACACACACUA [gtspaired] | 0.189 |
| UUUUUUUUUUGAGACCGAGUCGGUUUCCUG [tttttgagapaired] | 0.866 |
| GUGUGGUGUGUUGGUCUCUAACACACUACG [gtspaired] | -0.844 |
| GUGGUUGGUGUUGGUAUCUAACACCAGCCG [gtspaired] | -0.581 |
| UUUUUUUUUUGAGAUGGGCACUAUCUCCUG [tttttgagapaired] | 0.686 |

| Sequence | binding signal (log2 fold change) |
| --- | --- |
| GUGGUUGGUGUUGGCGCCUAACACCAGCCG [gtspaired] | -0.426 |
| UUUUUUUUUUGAGAUCGAAGCGAUCUCCGG [tttttgagapaired] | 0.166 |
| UUUUUUUUUUGAGACGGCGACUGUCUCCUA [tttttgagapaired] | 1.01 |
| UUUUUUUUUUGAGAACGGACCGUUCUCCGG [tttttgagapaired] | 0.532 |
| UUUUUUUUUUGAGACCGGAACGGUCUCCUG [tttttgagapaired] | 0.142 |
| GGUUGUUGUGUUGGCAUCUAACACAGCAAC [gtspaired] | -0.533 |
| UUUUUUUUUUGAGACUGCAACAGUCUUCUA [tttttgagapaired] | 0.182 |
| UUUUUUUUUUGAGACUGCUGCAGUCUCCAG [tttttgagapaired] | 0.661 |
| UUUUUUUUUUGAGAUGGGCUCCAUCUCCUA [tttttgagapaired] | 0.445 |
| GUGGUGUGUGUUGGACUCUAACACACGCCG [gtspaired] | -0.608 |
| UUUUUUUUUUGAGACCGGAUCGGUUUCCUA [tttttgagapaired] | 0.598 |
| UUUUUUUUUUGAGAGCGAGUCGUUCUCCGG [tttttgagapaired] | 0.144 |
| UUUUUUUUUUGAGACUGAAGCAGUCUUCUA [tttttgagapaired] | 0.0841 |
| GUGGUGUGUGUUGGAUCCUAACACAUACUA [gtspaired] | -0.73 |
| UUUUUUUUUUGAGACGGGGGCCGUCUCCUG [tttttgagapaired] | 0.936 |
| UUUUUUUUUUGAGAUGGCAGCUAUCUCCAG [tttttgagapaired] | 0.55 |
| UUUUUUUUUUGAGACGGGGUCCGUCUUCUA [tttttgagapaired] | 0.919 |
| UUUUUUUUUUGAGAGCGAAGCGCUCUUCUA [tttttgagapaired] | 0.197 |
| UUUUUUUUUUGAGAGCGAGCCGCUCUCCUG [tttttgagapaired] | 0.201 |
| UUUUUUUUUUGAGACGGUGACCGUCUCCUA [tttttgagapaired] | 0.399 |
| UUUUUUUUUUGAGAUCGAAACGAUCUCCAG [tttttgagapaired] | 0.164 |
| GUGUGGUGUGUUGGUCCCUAACACACUACA [gtspaired] | 0.085 |
| UUUUUUUUUUGAGACCGCGACGGUCUCCUA [tttttgagapaired] | 0.382 |
| UUUUUUUUUUGAGAGGGGAUCCCUCUUCUA [tttttgagapaired] | 0.424 |
| UUUUUUUUUUGAGAUCGAAACGAUUUCCGG [tttttgagapaired] | 0.0288 |
